Values quoted from earlier work in paper PMC4976356, “Structural insight into β-Clamp and its interaction with DNA Ligase in Helicobacter pylori” (Scientific Reports, 2016).

Tested on: Ecβ-clamp

## MutL: MutL, binds to β-clamp in E. coli
  interaction with E. coli β-clamp (in words): will also bind to β-clamp in E. coli
